In ChEMBL document CHEMBL4888484, “Replenishing the malaria drug discovery pipeline: Screening and hit evaluation of the MMV Hit Generation Library 1 (HGL1) against asexual blood stage Plasmodium falciparum ,using a nano luciferase reporter read-out” (2022):
Hit rate of the full screen: of about 150,000 compounds, about 540 (0.36%) showed an effect of 50% or more. This is one part of the list.

What follows are molecules tested on Plasmodium falciparum (assay: Primary screen in NF54 nanoGlo assay, in single point, at 2uM, 72h; a lower Z score goes with more inhibition). Details: timepoint 72 hour.
Format: functional, Erythrocyte

Row | Compound | % Inhibition | Z score
1 | CCc1nc(NCc2ccnc(NC)c2)c2ccsc2n1 | -4% | 0.71
2 | O=C(NCC1CN2CCCC2CO1)N1CC2CCCC2C1 (centres undefined) | 0% | 0.04
3 | Cc1cc(NC(=O)c2occc2-c2ccccc2)sn1 | 35% | -5
4 | CCCOc1ncccc1CNc1cc(C)nc(N)n1 | -8% | 0.76
5 | CC[C@H](OC)C(=O)N1CCCN(C2CCCCC2)CC1 | -9% | 1.51
6 | CC(C)n1nnc(NC(=O)N2CN(CCN(C)C)C(=O)[C@@H]2C)n1 | -5% | 0.89
7 | N#Cc1nc(NC(=O)[C@@H]2Cc3cccc(F)c3O2)[nH]c1C#N | -7% | 0.74
8 | CC1CC(Nc2ccc(OCc3cccc(C#N)c3)c(F)c2)C(=O)O1 (centres undefined) | -3% | 0.36
9 | Cc1ccc(N2CCC3(CCCN3Cc3ccc([C@@H]4CCCO4)s3)CC2)nn1 | -4% | 0.67
10 | O=C(NCCc1ccccn1)c1cnc(CN2CCCC2)s1 | 5% | -0.83
11 | C#CCN1CCN(C(=O)CNc2cccc(NC(=O)CCC)c2)CC1 | -3% | 0.42
12 | FC(F)Oc1ccc(-c2c[n+](-c3cccc(C(F)(F)F)c3)c3n2CCCCC3)cc1 | 39% | -3.9
13 | Cc1cc(S(=O)(=O)Nc2nnc(C(C)C)o2)c(C)s1 | 2% | -0.14
14 | C[C@H](NC(=O)CCn1cncn1)c1nc(-c2ccncc2)no1 | 6% | -1.18
15 | NC(=O)c1[nH]nnc1NC(=O)[C@H]1CCCN(CC(F)(F)F)C1 | -16% | 2.41
16 | COc1cc(C(=O)N2C[C@@H](CN3C[C@@H](C)O[C@@H](C)C3)[C@@H](CO)C2)ccc1O | -8% | 1.04
17 | CC(C)(C)[C@@H]1CCCc2c(C(F)(F)F)nn(-c3nc4ccccc4s3)c21 | 6% | -1
18 | COc1ccc(C(=O)N2CC[C@H](c3ncc(C)n3C(C)C)C2)cc1 | -6% | 0.88
19 | O=C(COCc1ccccc1)N1CC2(C[C@H](N3CCCC3)CO2)C1 | 12% | -1.39
20 | COc1cc(NC(=O)C(C)(C)C)c(OC)cc1Cl | 21% | -2.44
21 | CC(C)N1C2CCC1CN(C(=O)C1CC=CCC1)CC2 (centres undefined) | -7% | 0.72

Row | Compound | % Inhibition | Z score
22 | COc1ccccc1[C@@H](O)Cn1cc(C(=O)Nc2ccc(C(N)=O)cc2)nn1 | -21% | 4.01
23 | CCn1c(=O)c(CCC(=O)NCc2ccc(Cl)cc2)nc2c(C)nn(-c3ccccc3)c21 | -2% | 0.34
24 | Cc1ccc(-c2cc(CN(CC(C)C)C(=O)C(C)C)no2)cc1C | 5% | -0.88
25 | Cc1nc(-c2cccs2)sc1C(=O)N1CCCC[C@@H]1C(=O)O | -9% | 1.25
26 | Cc1cc(NC(=O)N[C@H]2CCCn3ncnc32)nn1-c1ccccc1 | -6% | 0.61
27 | O=C(CC[C@@H]1N=C(O)N(Cc2ccccc2)C1=O)N1CCN(c2ccccn2)CC1 | -14% | 1.8
28 | O=C(CCc1ccc2c(c1)OCO2)N1CCc2[nH]cnc2[C@H]1c1cccnc1 | 3% | -0.55
29 | O=C(c1cc2c([nH]c1=O)CCCCC2)N1CCCCCCC1 | 0% | 0.04
30 | C[C@@H]1CN(C(=O)CCC(F)(F)F)C[C@]1(C)O | -11% | 1.4
31 | COc1ccccc1N1CCN(c2ncccc2CNC(=O)c2cnc[nH]2)CC1 | 9% | -1.78
32 | O=C1OC2CC1N(C(=O)c1c(F)cccc1Cl)C2 (centres undefined) | -11% | 1.75
33 | O=C(c1cc(Cl)cc(Cl)c1)N1CCC(CCc2ccc3c(c2)OCO3)CC1 | -18% | 1.73
34 | CCS(=O)(=O)c1ccc(O)c(NC(=O)[C@@H]2CCCc3[nH]ncc32)c1 | -16% | 1.37
35 | O=C(NC1CCCC1c1ccccc1)c1cc(C2CC2)on1 (centres undefined) | 10% | -1.99
36 | Cc1cccc(N2CCN(C(=O)C3CCN(c4nnc(N5CCCC5=O)s4)CC3)CC2)c1C | -17% | 3.1
37 | CNc1cc(C(=O)N[C@H]2CN(S(C)(=O)=O)C[C@@H]2C2CC2)ccn1 | 2% | -0.33
38 | CCCCCC(=O)N[C@H]1CO[C@@H](CN2CCC(F)(F)C2)[C@@H]1O | 6% | -0.81
39 | COc1ccc(Cl)cc1C(=O)N1Cc2cncnc2C1 | -14% | 2.48
40 | CCc1ccc(-c2c(-c3ccccc3)ncn2Cc2nnc(C)o2)nc1 | -3% | 0.46
41 | Cc1cc2nc(C(=O)N[C@H]3CC(=O)N(C4CCCCCC4)C3)cc(C)n2n1 | 2% | -0.24
42 | CCOc1ccc(-c2cc3n(n2)C[C@@](C)(C(=O)NC2CCCCC2)N(CCN(C)C)C3=O)cc1 | 10% | -1.61
